# The list shows a part of the results.
# B1: Dectin-1 (Mus musculus), Q6QLQ4 (protein)
# chain: GHNSGRNPEEKDNFLSRNKENHKPTESSLDEKVAPSKASQTTGGFSQPCLPNWIMHGKSCYLFSFSGNSWYGSKRHCSQLGAHLLKIDNSKEFEFIESQTSSHRINAFWIGLSRNQSEGPWFWEDGSAFFPNSFQVRNTAPQESLLHNCVWIHGSEVYNQICNTSSYSICEKEL
# Legend:
# Assay in all cases: glycan array binding signal (z-score within array); higher = stronger binding
# Details in all cases: glycan notation: IUPAC condensed, linker removed
# [1] = molecular target: Gal6S(b1-3)[Fuc(a1-4)]GlcNAc(b1-3)Gal(b1-4)Glc
# How it was run: (§1)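 Glycan array data were curated from 3228 arrays in the Consortium for Functional Glycomics database and kept only where the protein sequence was available. Glycan names were converted to IUPAC-condensed notation, and columns mapping to the same glycan were averaged. The binding signal is a within-array Z-score, averaged across arrays of the same protein sequence at different concentrations or buffers and across linkers. Negative Z-scores can be read as non-binding.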
# GalNAc(a1-3)Gal(b1-4)Glc = molecular target: GalNAc(a1-3)Gal(b1-4)Glc
# How it was run: as §1
# GalNAc(a1-3)GalNAc = molecular target: GalNAc(a1-3)GalNAc
# How it was run: as §1
# GalNAc(b1-4)Gal(b1-4)Glc = molecular target: GalNAc(b1-4)Gal(b1-4)Glc
# How it was run: as §1
# [2] = molecular target: GalNAc(b1-4)Gal3S(b1-4)Glc
# How it was run: as §1
# [3] = molecular target: GalNAc3S(b1-4)Gal3S(b1-4)Glc
# How it was run: as §1
# Glc(a1-2)Glc = molecular target: Glc(a1-2)Glc
# How it was run: as §1
# Glc(a1-2)Glc(a1-2)Glc = molecular target: Glc(a1-2)Glc(a1-2)Glc
# How it was run: as §1
# [4] = molecular target: Glc(a1-2)Glc(a1-2)Glc(a1-2)Glc
# How it was run: as §1
# [5] = molecular target: Glc(a1-2)Glc(a1-2)Glc(a1-2)Glc(a1-2)Glc
# How it was run: as §1
# [6] = molecular target: Glc(a1-2)Glc(a1-2)Glc(a1-2)Glc(a1-2)Glc(a1-2)Glc
# How it was run: as §1
# [7] = molecular target: Glc(a1-2)Glc(a1-2)Glc(a1-2)Glc(a1-2)Glc(a1-2)Glc(a1-2)Glc
# How it was run: as §1
# [8] = molecular target: Glc(a1-2)Glc(a1-2)Glc(a1-2)Glc(a1-2)Glc(a1-2)Glc(a1-2)Glc(a1-2)Glc
# How it was run: as §1
# [9] = molecular target: Glc(a1-2)Glc(a1-2)Glc(a1-2)Glc(a1-2)Glc(a1-2)Glc(a1-2)Glc(a1-2)Glc(a1-2)Glc
# How it was run: as §1
# Glc(a1-3)Glc = molecular target: Glc(a1-3)Glc
# How it was run: as §1
# Glc(a1-3)Glc(a1-3)Glc = molecular target: Glc(a1-3)Glc(a1-3)Glc
# How it was run: as §1
# [10] = molecular target: Glc(a1-3)Glc(a1-3)Glc(a1-3)Glc
# How it was run: as §1
# [11] = molecular target: Glc(a1-3)Glc(a1-3)Glc(a1-3)Glc(a1-3)Glc
# How it was run: as §1
# [12] = molecular target: Glc(a1-3)Glc(a1-3)Glc(a1-3)Glc(a1-3)Glc(a1-3)Glc
# How it was run: as §1
# [13] = molecular target: Glc(a1-3)Glc(a1-3)Glc(a1-3)Glc(a1-3)Glc(a1-3)Glc(a1-3)Glc
# How it was run: as §1
# [14] = molecular target: Glc(a1-3)Glc(a1-3)Glc(a1-3)Glc(a1-3)Glc(a1-3)Glc(a1-3)Glc(a1-3)Glc
# How it was run: as §1
# [15] = molecular target: Glc(a1-3)Glc(a1-3)Glc(a1-3)Glc(a1-3)Glc(a1-3)Glc(a1-3)Glc(a1-3)Glc(a1-3)Glc
# How it was run: as §1
# [16] = molecular target: Glc(a1-3)Glc(a1-3)Glc(a1-3)Glc(a1-3)Glc(a1-3)Glc(a1-3)Glc(a1-3)Glc(a1-3)Glc(a1-3)Glc
# How it was run: as §1
# [17] = molecular target: Glc(a1-3)Glc(a1-3)Glc(a1-3)Glc(a1-3)Glc(a1-3)Glc(a1-3)Glc(a1-3)Glc(a1-3)Glc(a1-3)Glc(a1-3)Glc
# How it was run: as §1
# [18] = molecular target: Glc(a1-3)Glc(a1-3)Glc(a1-3)Glc(a1-3)Glc(a1-3)Glc(a1-3)Glc(a1-3)Glc(a1-3)Glc(a1-3)Glc(a1-3)Glc(a1-3)Glc
# How it was run: as §1
# [19] = molecular target: Glc(a1-3)Glc(a1-3)Glc(a1-3)Glc(a1-3)Glc(a1-3)Glc(a1-3)Glc(a1-3)Glc(a1-3)Glc(a1-3)Glc(a1-3)Glc(a1-3)Glc(a1-3)Glc
# How it was run: as §1
# [20] = molecular target: Glc(a1-3)Man(a1-2)Man(a1-2)Man(a1-3)[Man(a1-2)Man(a1-3)[Man(a1-2)Man(a1-6)]Man(a1-6)]Man(b1-4)GlcNAc(b1-4)GlcNAc
# How it was run: as §1
# Glc(a1-4)Glc = molecular target: Glc(a1-4)Glc
# How it was run: as §1
# Glc(a1-4)Glc(a1-4)Glc = molecular target: Glc(a1-4)Glc(a1-4)Glc
# How it was run: as §1
# [21] = molecular target: Glc(a1-4)Glc(a1-4)Glc(a1-4)Glc
# How it was run: as §1
# [22] = molecular target: Glc(a1-4)Glc(a1-4)Glc(a1-4)Glc(a1-4)Glc
# How it was run: as §1
# [23] = molecular target: Glc(a1-4)Glc(a1-4)Glc(a1-4)Glc(a1-4)Glc(a1-4)Glc
# How it was run: as §1
# [24] = molecular target: Glc(a1-4)Glc(a1-4)Glc(a1-4)Glc(a1-4)Glc(a1-4)Glc(a1-4)Glc
# How it was run: as §1
# [25] = molecular target: Glc(a1-4)Glc(a1-4)Glc(a1-4)Glc(a1-4)Glc(a1-4)Glc(a1-4)Glc(a1-4)Glc
# How it was run: as §1
# [26] = molecular target: Glc(a1-4)Glc(a1-4)Glc(a1-4)Glc(a1-4)Glc(a1-4)Glc(a1-4)Glc(a1-4)Glc(a1-4)Glc
# How it was run: as §1
# [27] = molecular target: Glc(a1-4)Glc(a1-4)Glc(a1-4)Glc(a1-4)Glc(a1-4)Glc(a1-4)Glc(a1-4)Glc(a1-4)Glc(a1-4)Glc
# How it was run: as §1
# [28] = molecular target: Glc(a1-4)Glc(a1-4)Glc(a1-4)Glc(a1-4)Glc(a1-4)Glc(a1-4)Glc(a1-4)Glc(a1-4)Glc(a1-4)Glc(a1-4)Glc
# How it was run: as §1
# [29] = molecular target: Glc(a1-4)Glc(a1-4)Glc(a1-4)Glc(a1-4)Glc(a1-4)Glc(a1-4)Glc(a1-4)Glc(a1-4)Glc(a1-4)Glc(a1-4)Glc(a1-4)Glc
# How it was run: as §1
# [30] = molecular target: Glc(a1-4)Glc(a1-4)Glc(a1-4)Glc(a1-4)Glc(a1-4)Glc(a1-4)Glc(a1-4)Glc(a1-4)Glc(a1-4)Glc(a1-4)Glc(a1-4)Glc(a1-4)Glc
# How it was run: as §1
# Glc(a1-4)Glc(a1-6)Glc = molecular target: Glc(a1-4)Glc(a1-6)Glc
# How it was run: as §1
# Glc(a1-6)Glc = molecular target: Glc(a1-6)Glc
# How it was run: as §1
# Glc(a1-6)Glc(a1-4)Glc = molecular target: Glc(a1-6)Glc(a1-4)Glc
# How it was run: as §1
# [31] = molecular target: Glc(a1-6)Glc(a1-4)Glc(a1-4)Glc
# How it was run: as §1
# [32] = molecular target: Glc(a1-6)Glc(a1-4)Glc(a1-4)Glc(a1-6)Glc(a1-4)Glc(a1-4)Glc
# How it was run: as §1
# Glc(a1-6)Glc(a1-6)Glc = molecular target: Glc(a1-6)Glc(a1-6)Glc
# How it was run: as §1
binder,measurement,setting,value
B1,glycan array binding signal (z-score),[1],0.021
same,glycan array binding signal (z-score),GalNAc(a1-3)Gal(b1-4)Glc,-0.091
same,glycan array binding signal (z-score),GalNAc(a1-3)GalNAc,-0.089
same,glycan array binding signal (z-score),GalNAc(b1-4)Gal(b1-4)Glc,0.051
same,glycan array binding signal (z-score),[2],-0.074
same,glycan array binding signal (z-score),[3],-0.082
same,glycan array binding signal (z-score),Glc(a1-2)Glc,-0.093
same,glycan array binding signal (z-score),Glc(a1-2)Glc(a1-2)Glc,-0.135
same,glycan array binding signal (z-score),[4],-0.135
same,glycan array binding signal (z-score),[5],-0.135
same,glycan array binding signal (z-score),[6],-0.135
same,glycan array binding signal (z-score),[7],-0.135
same,glycan array binding signal (z-score),[8],-0.135
same,glycan array binding signal (z-score),[9],-0.135
same,glycan array binding signal (z-score),Glc(a1-3)Glc,-0.135
same,glycan array binding signal (z-score),Glc(a1-3)Glc(a1-3)Glc,-0.135
same,glycan array binding signal (z-score),[10],-0.135
same,glycan array binding signal (z-score),[11],-0.135
same,glycan array binding signal (z-score),[12],-0.135
same,glycan array binding signal (z-score),[13],-0.135
same,glycan array binding signal (z-score),[14],-0.135
same,glycan array binding signal (z-score),[15],-0.135
same,glycan array binding signal (z-score),[16],-0.135
same,glycan array binding signal (z-score),[17],-0.135
same,glycan array binding signal (z-score),[18],-0.135
same,glycan array binding signal (z-score),[19],-0.135
same,glycan array binding signal (z-score),[20],-0.04
same,glycan array binding signal (z-score),Glc(a1-4)Glc,-0.098
same,glycan array binding signal (z-score),Glc(a1-4)Glc(a1-4)Glc,-0.111
same,glycan array binding signal (z-score),[21],-0.113
same,glycan array binding signal (z-score),[22],-0.102
same,glycan array binding signal (z-score),[23],-0.135
same,glycan array binding signal (z-score),[24],-0.135
same,glycan array binding signal (z-score),[25],-0.135
same,glycan array binding signal (z-score),[26],-0.135
same,glycan array binding signal (z-score),[27],-0.135
same,glycan array binding signal (z-score),[28],-0.135
same,glycan array binding signal (z-score),[29],-0.135
same,glycan array binding signal (z-score),[30],-0.135
same,glycan array binding signal (z-score),Glc(a1-4)Glc(a1-6)Glc,0.413
same,glycan array binding signal (z-score),Glc(a1-6)Glc,-0.095
same,glycan array binding signal (z-score),Glc(a1-6)Glc(a1-4)Glc,-0.135
same,glycan array binding signal (z-score),[31],-0.086
same,glycan array binding signal (z-score),[32],-0.135
same,glycan array binding signal (z-score),Glc(a1-6)Glc(a1-6)Glc,-0.113
